# PubChem BioAssay AID488969 (Vanderbilt High Throughput Screening Facility, 2010)
# Over roughly 110,000 compounds, “z-score” has its median near -0.1; the highest 2% begin near 2. The list shows a part of the results.
# Target: Metabotropic glutamate receptor 8 (Rattus norvegicus) (UniProt P70579)
# Assay: rat mGluR8 modulators via GIRK flux, primary screen, cell-based, thallium flux, HTS (AID 488969)
# Settings: HEK293 rat mGluR8, GIRK (G protein-gated inwardly rectifying potassium channel) thallium flux, FluoZin2; at 10 µM; stronger effect = higher value; submaximal glutamate (EC20) added with thallium
# Sequence of UniProt P70579 (P70579 whole entry, looked up): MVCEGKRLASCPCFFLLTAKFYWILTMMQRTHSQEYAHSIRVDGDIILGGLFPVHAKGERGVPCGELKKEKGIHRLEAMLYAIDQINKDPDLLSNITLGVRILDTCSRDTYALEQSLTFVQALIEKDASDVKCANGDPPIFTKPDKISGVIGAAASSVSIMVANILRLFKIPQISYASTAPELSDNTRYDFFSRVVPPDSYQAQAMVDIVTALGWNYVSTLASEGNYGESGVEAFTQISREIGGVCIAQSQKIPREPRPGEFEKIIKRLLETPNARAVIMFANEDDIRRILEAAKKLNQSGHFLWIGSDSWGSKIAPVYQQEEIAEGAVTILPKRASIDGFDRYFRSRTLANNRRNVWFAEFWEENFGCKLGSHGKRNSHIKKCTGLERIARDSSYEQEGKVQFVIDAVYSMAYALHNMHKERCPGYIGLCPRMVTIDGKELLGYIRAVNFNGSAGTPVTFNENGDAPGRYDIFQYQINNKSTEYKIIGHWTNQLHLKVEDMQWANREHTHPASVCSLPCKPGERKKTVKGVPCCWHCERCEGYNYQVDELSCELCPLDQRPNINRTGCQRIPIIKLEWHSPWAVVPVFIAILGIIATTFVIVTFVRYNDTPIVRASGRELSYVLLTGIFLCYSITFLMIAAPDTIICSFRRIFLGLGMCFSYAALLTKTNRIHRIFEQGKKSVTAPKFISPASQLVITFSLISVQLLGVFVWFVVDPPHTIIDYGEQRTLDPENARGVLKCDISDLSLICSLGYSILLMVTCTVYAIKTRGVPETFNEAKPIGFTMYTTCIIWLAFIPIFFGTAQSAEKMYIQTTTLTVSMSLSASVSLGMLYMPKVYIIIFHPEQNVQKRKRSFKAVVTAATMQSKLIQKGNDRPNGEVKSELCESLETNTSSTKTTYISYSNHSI
row,Compound,z-score
1,Cc1cc([N+](=O)[O-])cc(C)c1OCC(=O)N/N=C/c1ccc(OC(=O)c2ccccc2)cc1,-0.0495
2,COC(=O)c1nc2n(n1)C(c1cccc(Cl)c1)C1=C(CC(C)(C)CC1=O)N2 (centres undefined),-0.452
3,O=C(CCC(=O)OCc1ccc(Cl)cc1)Nc1cccc([N+](=O)[O-])c1,0.0499
4,O=C(O)c1ccc(COc2c(F)c(F)cc(F)c2F)o1,-0.477
5,Cc1c(NC(=O)c2nn3c(c2Br)NC(c2ccccc2)CC3C(F)(F)F)c(=O)n(-c2ccccc2)n1C (centres undefined),-0.0432
6,CCOc1ccccc1NC(=O)CN1CCC(NC(=O)c2ccccc2)CC1,-0.698
7,Cc1ccc(NC(=O)COC(=O)C2COc3ccccc3O2)cc1S(=O)(=O)N1CCOCC1 (centres undefined),-0.314
8,Nc1ccccc1Nc1cc(-c2cccc(Cl)c2)nn1-c1ccccc1,0.148
9,CCCn1c(CCC(=O)O)ccc1-c1ccc(F)cc1,-0.0413
10,COc1ccc(-n2nnnc2SCC(=O)Nc2nnn(C)n2)cc1,-0.105
11,CCC(=O)N(CCc1ccccc1)Cc1cc2cc3c(cc2[nH]c1=O)OCO3,0.0713
12,COc1ccc2oc(=O)c(C(=O)O)cc2c1,0.0264
13,CC1(C)Cc2c(sc3c2C(=O)N(c2ccccc2)C2=NCCCN23)CO1,0.254
14,Cc1ccc(NCC(=O)N/N=C/c2ccc(-c3cccc(C(F)(F)F)c3)o2)cc1,-0.0535
15,CCCc1nnc(NC(=O)CCC(=O)NCCc2ccc(OC)c(OC)c2)s1,-0.147
16,Cc1cccc(-c2nnc(-c3ccccc3)o2)c1,0.474
17,O=C(O)c1cc(-c2ccccc2)n(-c2ccccc2C(=O)O)n1,0.306
18,CCOCC(=O)Nc1nnc(COC)s1,-0.129
19,CCOc1ccc(-n2c(SC(C)C(=O)OC)nc3c(c2=O)SCC3)cc1 (centres undefined),-1.05
20,O=C(NC1CCCCCC1)c1cccnc1Sc1ccccc1,-0.0826
21,CCOc1ccc(S(=O)(=O)N2CCC(C(N)=O)CC2)c2ccccc12,1.35
22,COc1cccc(NC(=O)CSc2nnc(-c3cccs3)n2C)c1,-0.173

row,Compound,z-score
1,Cc1cc(C)n(-c2ccc(C(=O)OCC(=O)NCc3ccc(F)cc3)cc2)n1,0.122
2,COc1ccc(Cn2nnnc2C(c2ccncc2)N2CCOCC2)cc1 (centres undefined),0.39
3,CN1CCN(C(=O)Cn2c(C(F)(F)F)nc3ccccc32)CC1,0.0745
4,Cc1cc(N2CCN(c3ccccn3)CC2)n2c(nc3ccccc32)c1C#N,-0.235
5,Cc1sc(NC(=O)Cn2c(=O)oc3ccccc32)nc1-c1ccc(Cl)cc1,-0.249
6,COc1ccc(N(CN2C(=O)c3ccccc3C2=O)C(=O)COc2ccc(Cl)cc2Cl)cc1,-0.172
7,Cc1c(NC(=O)c2ccccc2F)c(=O)n(-c2ccccc2)n1C,-0.242
8,O=C(c1cnccn1)N1CCN(S(=O)(=O)c2ccc3ccccc3c2)CC1,0.0311
9,CC1CCc2nn(CC(=O)Nc3c(F)cc(F)cc3Br)cc2C1 (centres undefined),-0.123
10,Cc1nn(Cc2ccccc2Cl)c(C)c1NC(=O)c1noc2c1CCCCC2,-0.931
11,CCCn1c(=O)c(F)cn(Cc2ccc(OC)c([N+](=O)[O-])c2)c1=O,0.209
12,Cc1cc(C(=O)N/N=C/c2cccc([N+](=O)[O-])c2)c(C)o1,0.0137
13,Cn1cnc(C(F)(F)F)c1-c1ccc([N+](=O)[O-])cc1,-0.0893
14,Cc1cc(C)cc(-n2nnc(C(=O)NCc3ccc4c(c3)OCO4)c2N)c1,1.32
15,CCOC(=O)CNC(=O)CSc1nc(NCc2ccccc2)nc(N(C)C)n1,-0.893
16,C=C(C)c1cccc(C(C)(C)NC(=O)Nc2ccccc2OCC)c1,-0.0167
17,CCOC(=O)c1c(C)noc1CP(=O)(c1ccccc1)c1ccccc1,0.284
18,CN1CCN(C(=O)c2cnn(-c3ccccc3)c2NC(=O)c2ccccc2F)CC1,0.658
19,Cc1ccc(-n2c(CCC(=O)O)ccc2-c2cccs2)cc1,-0.204
20,Cc1occc1C(=O)Nc1cccc(Cn2cccn2)c1,-0.737
21,c1ccc(CCn2nnnc2CN2CCCc3ccccc32)cc1,-0.227
22,Cc1ccc2c(CC(=O)NC3=NCCS3)coc2c1,-0.993

row,Compound,z-score
1,COc1ccc(-c2nc(-c3cccc(C)c3)[nH]c(=O)c2C#N)cc1,-0.296
2,Cc1ccc(CNC(=O)C2CC(c3ccccc3[N+](=O)[O-])=NO2)cc1 (centres undefined),-0.165
3,CCOc1ccc(-c2nnn(CC(=O)NCc3ccc4c(c3)OCO4)n2)cc1,-0.161
4,COc1ccc(C(=O)Nc2ccc3c(c2)OCO3)cc1OC,-0.089
5,CC1CSc2nnc(CCc3ccccc3)n21 (centres undefined),-0.325
6,O=C(c1ccc(F)cc1)[C@@H]1[C@@H](C(=O)c2ccccc2)[C@@]2(C(=O)Nc3ccccc32)[C@H]2c3ccccc3C=CN12,-0.164
7,O=C(Cc1cccs1)Nc1ccc2c(c1)C(=O)OC2,0.917
8,COc1ccccc1CNC(=O)CCS(=O)(=O)c1ccc2c(c1)CCCN2C(C)=O,0.626
9,Clc1ccccc1Cn1nnc(-c2cccs2)n1,-0.411
10,CCOC(=O)c1cnn(-c2ccccc2)c1-n1cccc1C(=O)C(=O)Nc1ccccc1C(F)(F)F,0.509
11,CC(=O)Oc1ccc2c(c1)C(=O)c1ccccc1CO2,-0.297
12,Cc1ccc2c(c1)cc(CN(Cc1cccs1)C(=O)c1ccco1)c1nnnn12,-0.454
13,c1ccc(Cn2c(CNc3nc4ccccc4n3CCN3CCCCC3)nc3ccccc32)cc1,1.4
14,CC(C)C(OC(=O)c1cc2c(s1)CCCCC2)C(=O)NC(N)=O (centres undefined),0.134
15,CCOC(=O)C1=C(CSc2nc(CC)c(C)cc2C#N)OC(N)=C(C#N)C1c1ccc(OC)cc1 (centres undefined),-0.213
16,COc1ccccc1C1NC(=O)NC(C)=C1C(C)=O (centres undefined),0.863
17,O=C(Nc1cccc(NC(=O)c2ccco2)c1)c1cnccn1,0.319
18,CC(C)n1nc(C(=O)NCCc2ccc(S(N)(=O)=O)cc2)c2ccccc2c1=O,0.514
19,CCCN1C(=O)/C(=C/c2ccc(C)s2)SC1=Nc1ccc(OC)cc1,-0.117
20,CCCCOCCCNC(=O)c1ccc(NC(C)=O)cc1,0.132
21,COc1ccccc1C(=O)Nc1ccc(S(=O)(=O)Nc2cc(C)nc(C)n2)cc1,-0.272
22,CCN(Cc1cc2ccccc2[nH]c1=O)C(=O)c1cccnc1,0.367

row,Compound,z-score
1,CCc1sc(C(=O)Nc2ccc(F)cc2C)cc1C,-0.0957
2,Cc1sc2ncn(CC(=O)NCC(=O)N(C)Cc3ccccc3)c(=O)c2c1C,0.601
3,CC1Oc2ccccc2N(CC(=O)N2CCc3ccccc32)C1=O (centres undefined),0.157
4,O=C(CC1(O)C(=O)N(CN2CCOCC2)c2ccccc21)c1ccccc1 (centres undefined),0.409
5,CCn1c(=O)cc(OCC(=O)N2CCN(c3cccc(C(F)(F)F)c3)CC2)c2ccccc21,-0.303
6,CC(c1ccccc1)N1C(=O)C2C3CCC(C3)C2C1=O (centres undefined),-0.0398
7,Cc1ccc(-c2cc(C(=O)Nc3ccc4c(c3)OCCO4)c3ccccc3n2)cc1,0.0222
8,C=CCOC(=O)C1=C(C)NC(SC)=C(C#N)C1c1cccs1 (centres undefined),1.8
9,CN(C)c1ccc(NC(=O)COC(=O)c2cc(Cl)ccc2[N+](=O)[O-])cc1,-0.254
10,CSc1nnnn1-c1ccc(C(=O)OCC(=O)N2CCOCC2)cc1,-0.227
11,O=C(CN1CCCCCC1)N1c2ccccc2Sc2ccc(C(F)(F)F)cc21,0.9
12,CC(NC(=O)C(=O)NN=C1CCCCCCC1)c1ccccc1 (centres undefined),-0.78
13,CCc1ccccc1NC(=O)CSc1nnc([C@@H]2CCCN2C(=O)OC(C)(C)C)o1,-1.16
14,Cc1ccc(NC(=O)c2cc(C)n(-c3ccccc3)c2C)cc1,0.165
15,CCCCC(=O)NC(=S)Nc1cccc(NC(=O)c2ccco2)c1,-0.0855
16,Cc1nc(NCc2ccco2)c2c(C)c(C)sc2n1,-1.09
17,CCCCSc1nnc(-c2ccc(NC(=O)CC)cc2)n1C,0.117
18,Cc1ccc(NC(=O)Cn2c(CCC(=O)O)ccc2-c2cccs2)cc1,-0.502
19,CC(=O)N(Cc1cccnc1)Cc1cc2ccc(C)cc2[nH]c1=O,-0.467
20,Cc1ccc(S(=O)(=O)N(C)/N=C/C=C/c2ccccc2)cc1,-0.513
21,CC(=O)c1cccc(NC(=O)N2CCCc3ccccc32)c1,-0.731
22,CCCSCCCNC(=O)c1cc2c(s1)CS(=O)(=O)C2,-0.247

row,Compound,z-score
1,Cc1cc(C)nc(NC(=O)c2cccc(Cl)c2)n1,0.26
2,O[C@@H]1C2CCCC1[C@]1(O)CCCCC1C2 (some centres undefined),-0.021
3,O=C(OCC1COc2ccccc2O1)c1c(F)cccc1F (centres undefined),0.396
4,CON/C=C(\C=Nc1ccc(F)cc1)c1ncc(C(F)(F)F)cc1Cl,-0.0959
5,O=C(O)CCc1ccc(-c2cccs2)n1-c1ccc(C(=O)O)cc1,0.28
6,CCOC(=O)c1c(NC(=O)COC(=O)c2c(C)noc2C)sc2c1CCC2,-0.391
7,CN(C)C(CNC(=O)c1cccnc1Sc1ccccc1)c1ccco1 (centres undefined),0.416
8,NC(=O)Cc1nc(-c2ccccc2)cs1,-0.151
9,CCN(CC)S(=O)(=O)c1ccc(C(=O)Nc2nnc(C(C)C)s2)cc1,-0.2
10,Cc1n[nH]c(=S)n1/N=C/c1ccc(OCc2ccc(Cl)cc2)cc1,0.0785
11,Cc1cc(-c2ccccc2)nc(N/N=C/c2ccc([N+](=O)[O-])cc2)n1,0.124
12,CCCC(=O)N(c1ccc(OC)cc1)C1C=CS(=O)(=O)C1 (centres undefined),-0.0143
13,O=C(CSCc1ccccc1)N/N=C/c1ccccc1OCc1ccccc1,0.274
14,Cc1cc2nc(CCN3CCOCC3)n(S(=O)(=O)c3ccc(C(C)(C)C)cc3)c2cc1C,0.425
15,COc1ccccc1Oc1coc2cc(OC(=O)N3CCOCC3)ccc2c1=O,-0.131
16,COc1cccc(C(=O)NCc2nnc(SCC(=O)Nc3nccs3)n2-c2cccc(C)c2)c1,-0.554
17,CC(=O)C1=C(O)C(=O)N(Cc2ccco2)C1c1ccc2c(c1)OCO2 (centres undefined),-0.881
18,CC(Sc1ccccc1)C(=O)Nc1ccc(N2CCOCC2)cc1 (centres undefined),0.468
19,CCCc1cc(C(=O)NNC(=S)NCC2CCCO2)cs1 (centres undefined),-0.0283
20,CCOC(=O)CN1CCc2c(C)nc3c(-c4ccc(OC)c(OC)c4)cnn3c21,0.0936
21,CCOC(=O)Cc1csc(NC(=O)c2ccc(NC(C)=O)cc2)n1,0.627
